Experimental data published in PMC5464911, “SEL120-34A is a novel CDK8 inhibitor active in AML cells with high levels of serine phosphorylation of STAT1 and STAT5 transactivation domains” (Oncotarget, 2017).

Experiments:
CDK9/CycK = CDK9/CycK (Homo sapiens, UniProt P50750); test: CDK family single point inhibition assay; assay type: biochemical; conditions: Km ATP
CDK7/CycH/MAT1 = CDK7/CycH/MAT1 (Homo sapiens, UniProt P50613); test: CDK family single point inhibition assay; assay type: biochemical; conditions: Km ATP
Chain of UniProt P50613 (P50613 whole entry): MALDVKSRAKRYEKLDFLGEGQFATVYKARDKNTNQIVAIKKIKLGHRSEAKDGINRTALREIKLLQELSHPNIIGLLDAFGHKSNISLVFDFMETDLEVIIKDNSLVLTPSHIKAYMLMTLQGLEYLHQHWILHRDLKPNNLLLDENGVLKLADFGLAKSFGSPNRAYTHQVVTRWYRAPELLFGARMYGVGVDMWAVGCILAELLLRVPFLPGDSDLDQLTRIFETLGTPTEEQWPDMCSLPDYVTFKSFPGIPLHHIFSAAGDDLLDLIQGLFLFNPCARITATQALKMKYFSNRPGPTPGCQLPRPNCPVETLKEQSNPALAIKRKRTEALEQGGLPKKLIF
Chain of UniProt P50613 (P51946 whole entry partner): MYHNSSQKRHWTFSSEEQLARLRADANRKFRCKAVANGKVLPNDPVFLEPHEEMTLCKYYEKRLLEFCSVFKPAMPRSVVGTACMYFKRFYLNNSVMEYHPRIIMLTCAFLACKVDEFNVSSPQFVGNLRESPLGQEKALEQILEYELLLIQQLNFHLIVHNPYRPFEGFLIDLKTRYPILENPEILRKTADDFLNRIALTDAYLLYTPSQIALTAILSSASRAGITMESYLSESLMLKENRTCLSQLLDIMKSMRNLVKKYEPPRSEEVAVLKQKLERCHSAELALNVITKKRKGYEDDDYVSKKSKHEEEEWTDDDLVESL
Chain of UniProt P50613 (P51948 whole entry partner): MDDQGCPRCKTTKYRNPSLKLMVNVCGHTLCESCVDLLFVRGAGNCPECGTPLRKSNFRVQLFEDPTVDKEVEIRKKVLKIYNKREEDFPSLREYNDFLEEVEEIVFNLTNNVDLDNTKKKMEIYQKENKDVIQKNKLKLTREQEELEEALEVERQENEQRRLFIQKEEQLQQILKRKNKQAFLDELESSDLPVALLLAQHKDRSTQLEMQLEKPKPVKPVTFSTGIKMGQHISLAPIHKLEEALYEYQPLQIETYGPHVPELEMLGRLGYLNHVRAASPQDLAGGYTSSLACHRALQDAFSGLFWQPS

CDK1/CycE1 = CDK1/CycE1 (Homo sapiens, UniProt P06493); test: CDK family single point inhibition assay; assay type: biochemical; conditions: Km ATP
Chain of UniProt P06493 (P06493 whole entry): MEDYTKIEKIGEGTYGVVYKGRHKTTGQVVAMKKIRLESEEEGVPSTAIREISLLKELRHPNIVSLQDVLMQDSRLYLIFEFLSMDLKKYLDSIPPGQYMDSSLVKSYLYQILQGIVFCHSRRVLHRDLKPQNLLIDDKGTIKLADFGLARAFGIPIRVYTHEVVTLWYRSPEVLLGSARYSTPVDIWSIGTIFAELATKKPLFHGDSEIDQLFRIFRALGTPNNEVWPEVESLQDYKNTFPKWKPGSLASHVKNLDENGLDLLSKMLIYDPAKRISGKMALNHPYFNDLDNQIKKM
Chain of UniProt P06493 (P24864 whole entry partner): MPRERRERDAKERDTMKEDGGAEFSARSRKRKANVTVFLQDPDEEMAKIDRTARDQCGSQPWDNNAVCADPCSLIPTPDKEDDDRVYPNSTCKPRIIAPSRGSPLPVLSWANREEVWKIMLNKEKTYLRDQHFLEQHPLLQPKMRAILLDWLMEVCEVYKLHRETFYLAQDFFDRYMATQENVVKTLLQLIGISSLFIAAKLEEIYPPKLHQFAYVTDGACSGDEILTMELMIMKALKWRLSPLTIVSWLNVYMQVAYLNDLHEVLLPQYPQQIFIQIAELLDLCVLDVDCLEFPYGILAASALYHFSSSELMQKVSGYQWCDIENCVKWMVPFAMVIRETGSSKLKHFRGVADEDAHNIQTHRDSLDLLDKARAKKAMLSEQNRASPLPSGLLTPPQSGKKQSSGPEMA

CDK4/CycD1 = CDK4/CycD1 (Homo sapiens, UniProt P11802); test: CDK family single point inhibition assay; assay type: biochemical; conditions: Km ATP
Chain of UniProt P11802 (P11802 whole entry): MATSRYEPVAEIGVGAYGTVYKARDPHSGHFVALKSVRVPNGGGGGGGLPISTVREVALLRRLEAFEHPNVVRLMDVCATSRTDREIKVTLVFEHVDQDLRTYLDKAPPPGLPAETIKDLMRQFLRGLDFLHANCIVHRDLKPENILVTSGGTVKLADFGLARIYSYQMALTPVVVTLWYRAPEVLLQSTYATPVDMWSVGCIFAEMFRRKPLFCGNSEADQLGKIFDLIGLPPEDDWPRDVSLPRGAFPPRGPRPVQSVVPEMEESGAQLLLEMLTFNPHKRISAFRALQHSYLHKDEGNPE
Chain of UniProt P11802 (P24385 whole entry partner): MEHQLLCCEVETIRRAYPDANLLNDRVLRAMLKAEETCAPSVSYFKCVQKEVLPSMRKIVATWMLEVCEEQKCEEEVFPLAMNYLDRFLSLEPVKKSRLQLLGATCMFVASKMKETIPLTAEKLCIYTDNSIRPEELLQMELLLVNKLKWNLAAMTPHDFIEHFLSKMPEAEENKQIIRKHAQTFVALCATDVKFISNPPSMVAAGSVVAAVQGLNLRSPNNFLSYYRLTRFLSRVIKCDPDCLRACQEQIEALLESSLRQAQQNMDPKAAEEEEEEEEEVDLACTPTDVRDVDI

MOLM16 = test: Extended viability test (AlamarBlue); assay type: cell-based; conditions: extended viability assay
GDM-1 = test: Extended viability test (AlamarBlue); assay type: cell-based; conditions: Homo sapiens, extended viability assay
KG-1 = test: Extended viability test (AlamarBlue); assay type: cell-based
EOL-1 = test: Extended viability test (AlamarBlue); assay type: cell-based; conditions: Homo sapiens, EOL1; extended viability assay
MV4-11 = test: Extended viability test (AlamarBlue); assay type: cell-based; conditions: Homo sapiens, extended viability assay
Oci-AML3 = test: Extended viability test (AlamarBlue); assay type: cell-based; conditions: Homo sapiens, OCI-AML-3; extended viability assay
Kasumi-1 = test: Extended viability test (AlamarBlue); assay type: cell-based; conditions: Homo sapiens, extended viability assay
MOLM13 = test: Extended viability test (AlamarBlue); assay type: cell-based
PL-21 = test: Extended viability test (AlamarBlue); assay type: cell-based; conditions: extended viability assay
SIG-M5 = test: Extended viability test (AlamarBlue); assay type: cell-based; conditions: Homo sapiens, extended viability assay
CDK8 = target: T1, CDK8 (Homo sapiens, UniProt P49336); test: Kinase capture with ATP-desthiobiotin probes in KG-1 AML cell lysates; assay type: binding; conditions: 1- 100 nM concentration range
T1 construct: endogenous in cells; host or cells: KG-1 AML cell lysate
T1 sequence (P49336 whole entry): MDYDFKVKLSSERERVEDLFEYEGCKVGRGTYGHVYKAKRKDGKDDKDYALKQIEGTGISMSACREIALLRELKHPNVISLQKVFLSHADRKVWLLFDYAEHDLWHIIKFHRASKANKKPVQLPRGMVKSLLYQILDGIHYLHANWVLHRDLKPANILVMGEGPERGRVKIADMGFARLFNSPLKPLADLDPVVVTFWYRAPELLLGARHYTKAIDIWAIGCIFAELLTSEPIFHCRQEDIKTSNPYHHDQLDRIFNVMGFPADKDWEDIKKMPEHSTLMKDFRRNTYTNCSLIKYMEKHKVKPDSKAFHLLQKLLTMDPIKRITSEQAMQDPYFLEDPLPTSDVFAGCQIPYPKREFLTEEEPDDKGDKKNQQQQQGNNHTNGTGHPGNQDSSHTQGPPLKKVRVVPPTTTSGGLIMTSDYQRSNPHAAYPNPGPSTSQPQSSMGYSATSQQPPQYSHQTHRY
T1 sequence (P24863 whole entry partner): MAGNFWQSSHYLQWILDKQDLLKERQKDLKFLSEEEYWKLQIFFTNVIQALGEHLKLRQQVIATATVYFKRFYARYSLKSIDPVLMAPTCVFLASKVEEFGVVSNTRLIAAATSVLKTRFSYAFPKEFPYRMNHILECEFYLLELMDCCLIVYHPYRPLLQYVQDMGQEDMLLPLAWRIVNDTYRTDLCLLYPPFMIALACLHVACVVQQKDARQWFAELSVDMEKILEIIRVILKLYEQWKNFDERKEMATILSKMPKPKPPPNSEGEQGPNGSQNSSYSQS

STAT5 S726 and Y694 = test: STAT phosphorylation in SET-2 cells (JAK2 V617F), WB; assay type: cell-based; conditions: 24 hours
Description: (B) SEL120-34A inhibits IFN-dependent phosphorylation of STAT1 S727. HCT-116 cells stimulated with IFNg for 4 h were treated with increasing doses of SEL120-34A, Flavopiridol (F) or vehicle DMSO (C) to determine changes in the phosphorylation of STAT1 S727 and Y701, as measured by WB. (*) unspecific band. (C) SEL120-34A inhibits serine phosphorylation of STAT1 S727 and STAT5 S726, whereas Ruxolitinib inhibits tyrosine phosphorylation of STAT1 Y701 and STAT5 Y694 in JAK2 V617F cells. SET-2 cells were treated with Ruxolitinib, SEL120-34A or vehicle DMSO (C) for 24 hours and protein levels of pS727, pY701 STAT1 and pS726, pY694 STAT5 were measured by WB. […]
0,1% SDS; 20 mM β-glicerol phosphate; 5 mM NaF; cat. # sc835), α-STAT5-pS726 (1:1000; Abcam, cat. # 1 mM Na3VO4) supplemented with protease inhibitors ab128896), α-STAT5-pY694 (1:1000; Cell Signaling, (Santa Cruz Biotechnology). […] Protein concentration in lysates (1:20000; Sigma, cat. # G9545) was measured by the Bradford assay and adjusted to achieve the same final concentration in each well (20-30 mRNA extraction from xenograft tissue μg protein/well). […] Prior to microarray analyses, the quality of the incubation with secondary donkey anti-rabbit antibodies RNA samples was determined using an Agilent 2100 conjugated to HRP, used at 1:4000 (Cell Signaling, Bioanalyzer (Agilent Technologies, CA, USA). […]

[1] = tested on: STAT5 S726 and STAT1 S727; test: STAT phosphorylation in KG-1 AML cells (WB); assay type: cell-based; conditions: KG-1 cells, 1 μM
Description: Figure 6 Efficacy of SEL120-34A in responder AML cells lines coincides with the inhibition of STAT5 S726 (A) Growth curves of responder KG-1 cell line and non-responder MOLM-13 cell line treated with increasing concentrations of SEL120-34A (B) Time-dependent effects of 1 μM SEL120-34A in KG-1 cells. Levels of STAT5 and phosphorylated STAT5 S726 and Y694 were measured by WB. (C) STAT5 S726 inhibition after the wash-out, following 1 h treatment with 1 μM SEL120-34A. (D) Effects of prolonged SEL120-34A exposures in KG-1 cells. KG-1 were treated with SEL120-34A for 1 h, 3 days and 6 days and levels of total STAT5, STAT5 S726, STAT1 S727, Caspase 3 and Cleaved Caspase 3 were measured by WB.
Mean GI50 (day 10) is shown and plotted on the graph (n=3). (D) Levels of phosphorylated STAT5 S726 and […] in AML cells from the panel C were measured by WB. Densitometry for STAT5 S726 and […] signals is shown and plotted on the graph. Cell lines from the panel D were divided into two classes based on the sensitivity to CDK8 inhibitors treatment (responders GI50<1 μM and non-responder GI50>1 μM), mean levels of STAT5 S726 (E) or STAT1 S727 (F) in selected cell lines measured by densitometry were presented on scatter plots. Differences between responder and non-responder were assessed by t-tests (p value is shown). […]

[2] = tested on: STAT1 S727 and STAT5 S726; test: Pharmacodynamics in Colo-205 CRC xenograft tissues (WB); assay type: in vivo, mice; conditions: 60mg/kg oral BID 3 days, 16 hours after the last dose
Description: (§1) Water was used as a vehicle. Levels of phosphorylated STAT1 S727, Y701 and STAT5 S726 were measured by WB. Floating bars plots indicate relative inhibition of STAT1 S727, measured by densitometry of WB signals (left) and corresponding concentrations of SEL120-34A detected in plasma of treated animals, measured by LC-MS (right). Mean, min and max values are presented. (B) Heat map showing changes in expression levels of the top 30 differentially expressed genes (based on adj. p-values, Z-scores are shown) in Colo-205 tumors, after treatment with 30 mg/kg of SEL120-34A at 4h time point (C) Validation of microarray data by qRT-PCR for selected IFN-regulated genes. Animals were administered with 5, 15, 30 and 60 mg/kg BID for 3 days and Colo-205 tumor samples were collected at 4 and 16 hours after the last compound dose. Total RNA was extracted and subjected to qRT-PCR measurements. mRNA expressions of measured transcripts were normalized to RPLP0 expression (n=3;±SD). Differences between mean cDNA levels for control and a given SEL120-34A dose at the indicated time point were assessed by t-tests. A p-value of ≤ 0.05 (*) was considered significant. (D) GSEA running plots for expression changes in Colo-205 xenografts after SEL120-34A treatment. […]

[3] = Plasma concentration in Colo-205 xenografted animals (LC-MS); assay type: in vivo, mice; conditions: mouse, 60mg/kg oral BID 3 days, 16 hour time point
Description: as §1

Chain of UniProt P50750 (P50750 whole entry): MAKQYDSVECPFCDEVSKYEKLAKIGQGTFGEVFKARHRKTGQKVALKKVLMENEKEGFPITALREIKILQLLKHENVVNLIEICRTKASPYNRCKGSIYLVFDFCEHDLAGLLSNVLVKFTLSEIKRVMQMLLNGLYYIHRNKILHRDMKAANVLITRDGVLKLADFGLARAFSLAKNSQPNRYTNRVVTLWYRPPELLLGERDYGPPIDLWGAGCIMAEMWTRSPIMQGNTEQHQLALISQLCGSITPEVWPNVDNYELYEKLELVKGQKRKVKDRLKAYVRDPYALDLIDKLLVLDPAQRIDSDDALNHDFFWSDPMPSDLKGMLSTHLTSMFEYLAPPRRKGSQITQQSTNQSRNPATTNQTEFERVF
Chain of UniProt P50750 (O75909 whole entry partner): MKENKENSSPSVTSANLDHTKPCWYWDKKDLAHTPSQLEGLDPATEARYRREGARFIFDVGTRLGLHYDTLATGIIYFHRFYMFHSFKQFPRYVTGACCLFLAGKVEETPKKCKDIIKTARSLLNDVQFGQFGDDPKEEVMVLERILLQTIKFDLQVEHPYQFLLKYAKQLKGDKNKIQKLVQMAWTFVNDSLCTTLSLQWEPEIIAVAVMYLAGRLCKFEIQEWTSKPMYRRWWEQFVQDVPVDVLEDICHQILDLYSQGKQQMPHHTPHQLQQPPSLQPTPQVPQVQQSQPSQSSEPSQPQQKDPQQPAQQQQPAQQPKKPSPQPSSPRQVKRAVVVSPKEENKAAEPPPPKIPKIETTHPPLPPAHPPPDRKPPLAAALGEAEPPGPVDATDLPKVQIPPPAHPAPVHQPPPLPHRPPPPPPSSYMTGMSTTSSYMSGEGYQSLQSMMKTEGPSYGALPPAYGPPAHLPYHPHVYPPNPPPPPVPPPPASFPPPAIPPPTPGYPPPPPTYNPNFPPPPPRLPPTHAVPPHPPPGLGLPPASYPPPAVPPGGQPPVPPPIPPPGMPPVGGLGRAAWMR

For Cc1c(Br)c(Br)c2c3c1nc(N1CCNCC1)n3CCC2 [SEL120-34A], the remaining activity at 1 µM (CDK9/CycK; mean, read-out: % remaining activity @1μM CDK9/CycK Mean) was 41%, the remaining activity at 1 µM (CDK9/CycK; repeat 1, read-out: % remaining activity @1μM CDK9/CycK repeat 1) was 45% and the remaining activity at 1 µM (CDK9/CycK; repeat 2, read-out: % remaining activity @1μM CDK9/CycK repeat 2) was 38%. It also gave a remaining activity at 1 µM (CDK7/CycH/MAT1; mean, read-out: % remaining activity @1μM CDK7/CycH/MAT1 Mean) of 83%, a remaining activity at 1 µM (CDK7/CycH/MAT1; repeat 1, read-out: % remaining activity @1μM CDK7/CycH/MAT1 repeat 1) of 86% and a remaining activity at 1 µM (CDK7/CycH/MAT1; repeat 2, read-out: % remaining activity @1μM CDK7/CycH/MAT1 repeat 2) of 79%. It also gave a remaining activity at 1 µM (CDK1/CycE1; mean, read-out: % remaining activity @1μM CDK1/CycE1 Mean) of 88%, a remaining activity at 1 µM (CDK1/CycE1; repeat 1, read-out: % remaining activity @1μM CDK1/CycE1 repeat 1) of 90% and a remaining activity at 1 µM (CDK1/CycE1; repeat 2, read-out: % remaining activity @1μM CDK1/CycE1 repeat 2) of 86%. The remaining activity at 1 µM (CDK4/CycD1; mean, read-out: % remaining activity @1μM CDK4/CycD1 Mean) was 94%, the remaining activity at 1 µM (CDK4/CycD1; repeat 1, read-out: % remaining activity @1μM CDK4/CycD1 repeat 1) was 89% and the remaining activity at 1 µM (CDK4/CycD1; repeat 2, read-out: % remaining activity @1μM CDK4/CycD1 repeat 2) was 99%. The GI50 (MOLM16) was 0.34 µM, the GI50 (GDM-1) was 0.06 µM and the GI50 (KG-1; Homo sapiens, KG-1, extended viability assay) was 0.16 µM. For the same compound, the “sensitivity of KG-1 AML cells to prolonged treatment” value (KG-1; STAT5 S726 positive cells, growth curves) was “sensitive”, the GI50 (EOL-1) was 1.1 µM and the GI50 (MV4-11) was 0.25 µM. The GI50 (Oci-AML3) was 0.4 µM, the GI50 (Kasumi-1) was 1.1 µM and the GI50 (MOLM13; Homo sapiens, MOLM-13, extended viability assay) was 2.5 µM. The “sensitivity of MOLM13 AML cells to prolonged treatment” value (MOLM13; S726 negative cells, growth curves) was “resistant”, the GI50 (PL-21) was 1 µM and the GI50 (SIG-M5) was 1.1 µM. For the same compound, the “binding to CDK8 in KG-1 AML cell lysates, competition with ATP-analogue probes” value (CDK8) was “effectively bind to CDK8 in a dose-dependent manner”, the “STAT5 S726 phosphorylation” value (STAT5 S726 and Y694) was “exhibited activity” and the “STAT5 Y694 phosphorylation” value (STAT5 S726 and Y694) was “but not Y694”. The “time to maximal inhibition of STAT5 S726” value [1] was 1 h, the “inhibition of STAT1 S727 and STAT5 S726 in Colo-205 xenograft tissues” value [2] was “Nearly complete inhibitions” and the concentration at 16 h [3] was greater than 700 ng/mL.

Where two headings read alike, the source gives them in different places.
